Measured values published in PubChem BioAssay (NCI).
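96-well plates; 48 h exposure; 5 concentrations. Endpoints by linear interpolation between flanking doses. Not reached: highest tested concentration assigned. GI50 = concentration required for 50% inhibition of growth.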 For part of its entries the source gives two or more results. The other results are left out here. The source may hold further records. Records of one sample usually come from different ranges of test concentrations, which the source does not state; a value can be the end of its range.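 TGI: concentration producing complete growth inhibition.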

Assays:
Test in all cases: growth of human tumour cells (NCI), 48 h
EKVX NSCLC = tested on: EKVX NSCLC
RXF 393 renal = tested on: RXF 393 renal
OVCAR-3 ovarian = tested on: OVCAR-3 ovarian
HCT-116 colon = tested on: HCT-116 colon
UACC-257 melanoma = tested on: UACC-257 melanoma
A498 renal = tested on: A498 renal
SK-MEL-2 melanoma = tested on: SK-MEL-2 melanoma
SN12C renal = tested on: SN12C renal
HS 578T breast = tested on: HS 578T breast
LOX IMVI melanoma = tested on: LOX IMVI melanoma
SR leukemia = tested on: SR leukemia
HT29 colon = tested on: HT29 colon
MOLT-4 leukemia = tested on: MOLT-4 leukemia
BT-549 breast = tested on: BT-549 breast
HOP-62 NSCLC = tested on: HOP-62 NSCLC

| SMILES | GI50 (EKVX NSCLC) | TGI (RXF 393 renal) | TGI (OVCAR-3 ovarian) | TGI (HCT-116 colon) | GI50 (UACC-257 melanoma) | GI50 (A498 renal) | TGI (A498 renal) | TGI (SK-MEL-2 melanoma) | GI50 (SN12C renal) | TGI (HS 578T breast) | TGI (LOX IMVI melanoma) | TGI (SR leukemia) | TGI (HT29 colon) | GI50 (MOLT-4 leukemia) | TGI (BT-549 breast) | GI50 (HOP-62 NSCLC) |
| --- | --- | --- | --- | --- | --- | --- | --- | --- | --- | --- | --- | --- | --- | --- | --- | --- |
| CC(=O)O[C@H]1C(=O)[C@@]2(C)[C@H]([C@H](OC(=O)c3ccccc3)[C@]3([O-])C[C@H](OC(=O)[C@H]([O-])[C@@H](NC(=O)c4ccccc4)c4ccccc4)C(C)=C1C3(C)C)[C@]1(OC(C)=O)CO[C@@H]1C[C@@H]2[O-].[Fe+3] | 168 nM and 1.95 µM | 452 nM and 11.6 µM | 65 nM and 1.97 µM | 665 nM and 12.4 µM | 112 nM and 18.3 µM | 37.5 nM and 585 nM | 471 nM and 83.7 µM | 392 nM and 31.9 µM | 13.9 µM and 220 nM | 842 nM and > 100 µM | 7.14 µM and > 100 µM | 490 nM and > 100 µM | 422 nM and 11.9 µM | 204 nM and 13.8 µM | 479 nM and > 100 µM | 161 nM and 12.3 µM |
| CC1=Nc2c(ccc3c2C(=O)c2ccccc2C3=O)NC(c2ccncc2)C1 (configuration not stated) |  |  |  |  |  |  |  |  |  |  |  | 933 nM and > 100 µM |  |  |  |  |
